PubChem BioAssay AID686978 (National Center for Advancing Translational Sciences (NCATS), 2013)
Hit rate of the full screen: of about 420,000 compounds, about 64,000 (15%) were called active. This list was built around the results that the source calls inconclusive (neither active nor inactive); the mix of calls is not that of the screen. Calls come from the whole dose curve; as a rule, active = well fitted inhibition curve with a large enough effect; inconclusive = small, poorly fitted or top-dose-only effect; inactive = flat fitted curve, though single readings scatter. No potency is given beside an inconclusive call; the fits are too rough.

Assay: qHTS for Inhibitors of human tyrosyl-DNA phosphodiesterase 1 (TDP1): qHTS in cells in absence of CPT; note: nearly all actives have a fitted effect of over 55% in size
Details: DT40 Tdp1-/- hTDP1 cells, no CPT, ATP luminescence, 48 h; activity change, negative = growth inhibition: at 46.2 µM (top of the series)
In short: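 Readout: luminescence from CellTiter-Glo after 30 min in the dark at RT. Cells: DT40 Tdp1-/- with stable hTDP1, 400/well. Exposure: compounds alone, ≥48 hr, 37 °C.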
% is set by controls: 0 for no effect and ±100 for the full control effect; potency is the fitted concentration of half-maximal effect; tags give direction and shape of the fitted curve.

Structure (SMILES) | Potency | activity change, negative = growth inhibition
COc1ccc(C(=O)NC(c2ccc(OC)c(OC)c2)c2cc(Cl)c3cccnc3c2O)cc1 (configuration not stated) | active: 5.62 µM | –
Cc1ccc(NC(=O)Cn2c(=O)n(Cc3nc(-c4ccccc4)no3)c(=O)c3cc4c(cc32)OCO4)cc1C | inconclusive [inhibitor, partial curve] | –
Cc1ccc(-c2csc3ncnc(Sc4nnnn4C4CC4)c23)cc1 | active: 11.2 µM | –
CC1(Oc2ccc3ccccc3c2)CCN(Cc2cccn2-c2nccs2)C1 (configuration not stated) | active: 23.1 µM | –
CCN(CC)CCN1C(=O)c2ccccc2NC1c1ccc(F)cc1 (configuration not stated) | inactive | –
Cc1ccc(OCCN(C)C(=O)c2cc(COc3ccc(F)cc3F)on2)cc1 | inactive | –
COc1cccc(-c2cc(C(=O)N3CC4(C)CC3CC(C)(C)C4)no2)c1 (configuration not stated) | active: 20.6 µM | –
CCCCc1c(O)nc(SC2CC(=O)N(c3ccc(C(=O)OCC)cc3)C2=O)[nH]c1=O (configuration not stated) | inconclusive [inhibitor, single point] | –
COc1ccccc1N1CCN(C(c2ccccc2)c2nnc(-c3ccccc3Cl)o2)CC1 (configuration not stated) | inconclusive [inhibitor, single point] | –
O=C(N/N=C\c1ccccn1)C1COc2cc3ccccc3cc2O1 (configuration not stated) | inconclusive [inhibitor, partial curve, poor fit] | –
COC1=CC(C)C2CC3OC(=O)CC4C(C)=C(OC)C(=O)C([C@]2(C)C1=O)[C@]34C (some centres not stated) | inactive | –
O=C(NCc1cccs1)C(=O)NCC1OCCCN1S(=O)(=O)c1cc(F)ccc1F (configuration not stated) | inactive | –
COC(=O)C1CN(C(=O)COc2ccc(Cl)cc2C)c2ccccc2O1 (configuration not stated) | inactive | –
CC1CCCC(C)N1C(=O)CSc1nc2c(c(=O)n(C)c(=O)n2C)n1C (configuration not stated) | inactive | –
CC1(C)Cc2c(cnn2-c2ccc(F)cc2)C(NC(=O)C2CCC2)C1 (configuration not stated) | inconclusive [inhibitor, single point] | –
Cc1ccc(Cl)cc1N1C(=O)CC(C)(C)CC1=O | inactive | –
COc1ccc2nc(Nc3nc(C)c(C(C)=O)s3)sc2c1 | active: 16.4 µM | –
CCOC(=O)c1sc2nc(C)nc(NCc3ccccc3OC)c2c1C | inconclusive [inhibitor, partial curve] | –
CC(C(=O)N1CCCC1)N(C)CC(=O)Nc1cccc(F)c1 (configuration not stated) | inactive | –
COc1cccc(CNC(=O)C2CCN(Cc3cnn(-c4ccccc4)c3-n3cccc3)CC2)c1 | inconclusive [inhibitor, single point] | –
O=C(c1ccc2c(c1)N(Cc1ccccc1F)C(=O)c1ccccc1S2(=O)=O)N1CCCCCC1 | inconclusive [inhibitor, single point] | –
COc1ccc(N2CCN(CC(=O)c3c(C)n(C)c4ccc(OC)cc34)CC2)cc1 | active: 23.1 µM | –
CCOc1cc(N2CCOCC2)c(OCC)cc1NC(=O)COC(=O)c1ccc(Cl)cc1N | inconclusive [inhibitor, full curve] | –
Cc1ccc(C)c(Cn2c(=O)n(-c3ccc(CC(=O)NCc4ccco4)cc3)c(=O)c3sccc32)c1 | inconclusive [inhibitor, single point] | –
COC(=O)c1c(OCc2cccnc2)cc(=O)n2c1CCN(C(=O)c1c3c(nn1C)CCCC3)CC2 | inactive | –
CCOC(=O)C(C)Sc1nc2c(cnn2-c2ccc(F)cc2)c(=O)[nH]1 (configuration not stated) | inconclusive [inhibitor, single point] | –

Structure (SMILES) | Potency | activity change, negative = growth inhibition
Cc1cc(NC(=O)Nc2cccc(C(F)(F)F)c2)no1 | – | inconclusive: -33.3% [inhibitor]
CCc1nc2ccc(C(=O)NCCCn3ccnc3)cn2c1N(C)Cc1cc2ccccc2s1 | active: 16.4 µM | –
Cc1ccc(CN2CCNC(=O)C2CC(=O)N(C)C(C2CC2)C2CC2)o1 (configuration not stated) | inactive | –
CCOc1ccc(CCNC(=O)c2ccc(Cn3c(=O)c4cccn4c4cccnc43)cc2)cc1 | active: 20.6 µM | –
COc1ccc(-c2csc3ncnc(Nc4ccc(OC)c(OC)c4)c23)cc1 | active: 8.2 µM | –
C=CCCN(C(C(=O)OC)C(C)C)S(=O)(=O)c1ccccc1Br (configuration not stated) | inconclusive [inhibitor, single point] | –
O=C(N/N=C/c1ccc(O)c([N+](=O)[O-])c1)c1ccncc1 | inactive | –
COc1ccc(S(=O)(=O)Nc2cc(C(=O)NC3CCCCCC3)ccc2N2CCOCC2)cc1 | inconclusive [inhibitor, partial curve] | –
CCN(C(=O)Cn1c(SCc2ccccc2F)nc2cccnc21)c1ccccc1 | inconclusive [inhibitor, single point] | –
CCOc1cc(C(=O)N=c2sccn2C)cc(Br)c1OC | active: 18.4 µM | –
Cc1ccccc1-c1cc2nc(NCCOc3ccccc3)n(C)c(=O)c2s1 | inconclusive [inhibitor, partial curve, poor fit] | –
Cc1cc(C)c2nc(SCC(=O)Nc3cc(C)on3)c(C)cc2c1 | – | inconclusive: -32.2% [inhibitor]
CC(C)Cc1nc2oc3c(=O)[nH]cnc3c2c2c1CCC2 | inactive | –
CNC(=S)N(CCc1ccccc1)Cc1cc2cc(OC)c(OC)cc2[nH]c1=O | inconclusive [inhibitor, single point] | –
C=CCN1C(=O)C(CCCC)NC1=S (configuration not stated) | inactive | –
COc1cc(OC)cc(C(=O)N[C@H](C(=O)Nc2nc3ccccc3[nH]2)C(C)C)c1 | active: 2.59 µM | –
CCn1c(Cl)c(C=O)s/c1=N\S(=O)(=O)c1ccccc1 | active: 0.366 µM | –
O=C(CC(c1ccccc1)c1ccccc1)NCCO | inactive | –
COc1ccc(NC(=O)Cn2c(=O)sc3ccccc32)cc1 | inactive | –
CC(=O)c1c(C)[nH]c(C(=O)Nc2cccnc2)c1C | inactive | –
CCOC(=O)c1sc(N2C(=O)c3oc4ccc(F)cc4c(=O)c3C2c2cccc(OC)c2)nc1C (configuration not stated) | inactive | –
O=C(Nc1c(Cl)cc2c(c1Cl)Cc1cc([N+](=O)[O-])ccc1-2)C(Cl)Cl | inconclusive [inhibitor, single point] | –
Cc1ccc(S(=O)(=O)N(C)CC(=O)N2CCCCCC2)cc1 | inactive | –
Cc1ccc2scc(N3CCN(c4ccccc4)CC3)c(=O)c2c1 | inconclusive [inhibitor, single point] | –
CCOc1ccc(CCNC(=O)c2ccc3[nH]c(C)c(C)c3c2)cc1 | active: 20.6 µM | –
O=C(Nc1ccccc1[N+](=O)[O-])C1=C(O)CCn2c1nc1ccccc12 | inconclusive [inhibitor, single point] | –

Structure (SMILES) | Potency | activity change, negative = growth inhibition
CC(C)(C)C(=O)NCCc1nc2ccccc2n1CC(=O)c1ccc(Cl)cc1 | inconclusive [inhibitor, single point] | –
COc1ccc2nc(Cl)c(/C=N/Nc3ccccn3)cc2c1 | inconclusive [inhibitor, single point] | –
O=C(CSCc1nc2cccnc2n1C1CCCCC1)NCc1cccc(Br)c1 | active: 20.6 µM | –
Oc1c(C(c2ccccc2)N2CCOCC2)ccc2ccccc12 (configuration not stated) | active: 9.2 µM | –
N/C(=N\c1nc2c(c(=O)[nH]1)CCC2)Nc1cccc(Cl)c1 | active: 25.9 µM | –
CC(=O)N1N=C(c2ccccc2O)OC1(C)CC(=O)Nc1ccccc1 (configuration not stated) | inactive | –
CC(=O)Nc1ccc2c(c1)OCCO2 | inactive | –
CCOCCCNC(=O)c1cc(Sc2ccc(F)cc2)nc2ccccc12 | inconclusive [inhibitor, full curve, poor fit] | –
CC(C)C(=O)Nc1cccc(C(=O)Nc2cc([N+](=O)[O-])ccc2F)c1 | inconclusive [inhibitor, single point] | –
O=C(CCC1CCCC1)Nc1cc(C(F)(F)F)ccc1N1CCOCC1 | – | inconclusive: -36% [inhibitor]
COc1ccc(S(=O)(=O)N2CCN(Cc3ccccc3)CC2)c(C)c1 | inconclusive [inhibitor, single point] | –
O=C(Nc1ccc(Oc2ccccc2)nc1)C1CCCCN1Cc1ccc(OCCO)cc1 (configuration not stated) | inactive | –
CSc1cccc(NC(=O)CN(Cc2ccc(Cl)cc2)S(C)(=O)=O)c1 | inconclusive [inhibitor, single point] | –
O=C(NCCc1c[nH]c2ccccc12)c1cnc2n(c1=O)CCS2 | inactive | –
CSc1ccccc1OCc1cc(C(=O)N2CCN(Cc3nccn3C)CC2)no1 | inconclusive [inhibitor, single point] | –
COc1ccc(Cc2c(Cl)ncnc2Cl)cc1 | inconclusive [inhibitor, partial curve, poor fit] | –
CCc1ccccc1NS(=O)(=O)c1ccc2c(c1)CCCN2C(=O)C1CCC1 | active: 20.6 µM | –
COc1ccc(CCC(=O)Nc2nc3ccccc3[nH]2)cc1OC | inactive | –
COc1ccc(NC(=O)c2cc(-c3ccccc3Cl)on2)cc1 | inconclusive [inhibitor, single point] | –
CC(C)NC(=O)c1ccc2c(c1)N(Cc1cccc(Cl)c1)C(=O)c1ccccc1S2=O (configuration not stated) | inconclusive [inhibitor, partial curve, poor fit] | –
Cn1c(NCc2ccccc2F)nc2cc(-c3ccccc3)sc2c1=O | active: 20.6 µM | –
C/C(O)=C\c1nc2ccccc2oc1=O | active: 7.31 µM | –
O=C(Nc1ccc(S(=O)(=O)N2CCCC2)cc1)c1ccccc1 | active: 23.1 µM | –
CCC1CCC2(CC1)NC(=O)N(CC(=O)Nc1ccc(OC)cc1)C2=O (configuration not stated) | inconclusive [inhibitor, single point] | –
O=C(c1cc(C(F)(F)F)cc(C(F)(F)F)c1)N1CCC2(CCN(Cc3ccncc3)CC2)CC1 | inconclusive [inhibitor, single point] | –
